The supplement of paper PMC12217912
This is one part of the list. Sequences were assembled here from the parent chain. Values near 0.05 are background.

B1: TEV protease; numbered along this chain (parent)
chain: MGESLFKGPRDYNPISSSICHLTNESDGHTTSLYGIGFGPFIITNKHLFRRNNGTLVVQSLHGVFKVKDTTTLQQHLVDGRDMIIIRMPKDFPPFPQKLKFREPQREERICLVTTNFQTKSMSSMVSDTSCTFPSGDGIFWKHWIQTKDGQCGSPLVSTRDGFIVGIHSASNFTNTNNYFTSVPKNFMELLTNQEAQQWVSGWRLNADSVLWGGHKVFMVKPEEPFQPVKEATQL

Variants of: B1
Experiment: raw area under fraction-flipped curve 0-4 h after induction (AUC4h, not background-subtracted), DNA-recorder readout of cleavage of the substrate (dimensionless); higher = more cleavage of the substrate by the protease variant
Details: temperature: 34 °C; time window: 0-4 h after rhamnose induction
Protocol: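 In vivo DNA recorder in E. coli TOP10(DE3) ΔrhaA at 34 °C. Each TEVp single-site mutant (parent TEVp 0) is paired with a single-site variant of the 7-mer TEVs (canonical ENLYFQ|S). The substrate sits between flexible linkers in a Bxb1-sfGFP-TEVs-SsrA fusion, so cleavage stabilises Bxb1 and speeds flipping of a recombination array, read by NGS. The value is the raw area under the fraction-flipped curve over 0-4 h after rhamnose induction (AUC4h), with ≥20 reads per time point. It is not background-subtracted; inactive controls average about 0.047.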
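Further: Bxb1 expression induced with 0.2% (w/v) L-rhamnose at OD600 near 0.5, cultures sampled hourly, flipped fraction per protease–substrate barcode pair counted by paired-end Illumina sequencing.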

Row | Variant | area with substrate ENCYFQS | area with substrate ENDYFQS | area with substrate ENEYFQS | area with substrate ENGYFQS | area with substrate ENHYFQS | area with substrate ENIYFQS | area with substrate ENKYFQS | area with substrate ENNYFQS | area with substrate ENPYFQS | area with substrate ENQYFQS | area with substrate ENRYFQS | area with substrate ENSYFQS | area with substrate ENTYFQS | area with substrate ENVYFQS | area with substrate ENYYFQS | area with substrate ENFYFQS | area with substrate ENMYFQS | area with substrate ENWYFQS
1 | L22I | 0.0685 | 0.062 | 0.0516 | 0.0552 | 0.117 | 0.097 | 0.0579 | 0.0462 | 0.0604 | 0.0604 | 0.0661 | 0.0378 | 0.0618 | 0.0762 | 0.0638 | – | – | –
2 | G54V | – | 0.0526 | 0.0559 | 0.0552 | 0.0535 | 0.0579 | – | 0.0606 | – | 0.0516 | 0.055 | 0.0124 | 0.0538 | 0.0541 | 0.0266 | 0.0599 | 0.0459 | 0.0883
3 | G54Q | 0.0585 | 0.0407 | 0.0542 | 0.062 | 0.0457 | – | 0.0429 | 0.0664 | 0.0629 | 0.0586 | 0.0595 | 0.0628 | 0.0518 | 0.0589 | 0.0465 | 0.0493 | – | 0.0559
4 | S154W | 0.0647 | 0.0524 | 0.0697 | 0.0702 | 0.0614 | 0.0621 | 0.0536 | 0.0602 | 0.0514 | 0.0551 | – | 0.0598 | 0.043 | – | 0.0646 | 0.0626 | – | 0.0613
5 | P93M | 0.0733 | – | 0.0738 | 0.0527 | 0.0542 | 0.142 | – | – | 0.0636 | 0.0571 | 0.0796 | 0.0641 | – | 0.0951 | 0.0762 | 0.0582 | 0.0739 | 0.0043
6 | I84G | – | – | 0.0581 | 0.0631 | – | 0.0935 | – | – | – | 0.0572 | – | 0.0438 | 0.0445 | 0.0762 | 0.053 | – | – | –
7 | I15K | – | 0.047 | 0.0554 | 0.0602 | 0.0549 | 0.0595 | 0.065 | 0.0632 | 0.0451 | 0.0554 | 0.0553 | 0.0672 | 0.0535 | 0.0735 | 0.0576 | 0.0465 | 0.0696 | 0.0551
8 | S169W | 0.0519 | – | 0.0539 | 0.0544 | – | 0.0469 | – | 0.0671 | – | – | – | 0.0713 | 0.0635 | – | – | 0.0827 | – | 0.0575
9 | S171M | 0.0569 | 0.0572 | 0.0686 | 0.0597 | – | – | – | 0.0615 | – | 0.0613 | – | 0.0578 | 0.06 | – | – | 0.0533 | – | –
10 | S171L | – | 0.07 | 0.0672 | – | 0.0558 | – | 0.066 | 0.0577 | – | 0.0548 | 0.0662 | 0.0624 | – | – | 0.0572 | – | – | 0.0015
11 | R10M | 0.0682 | 0.0497 | 0.0577 | 0.0643 | – | – | – | 0.0582 | 0.0549 | 0.0592 | 0.0605 | 0.0637 | 0.0479 | 0.083 | 0.0598 | 0.055 | 0.0665 | 0.0412
12 | H62A | 0.0673 | 0.076 | 0.075 | – | 0.0591 | 0.0951 | 0.0585 | – | 0.0835 | 0.0604 | 0.0636 | 0.0595 | 0.0664 | – | – | 0.0571 | 0.101 | –
13 | S123I | – | 0.0638 | 0.0617 | – | – | 0.112 | 0.0632 | 0.068 | 0.0531 | 0.0402 | 0.0726 | 0.0562 | 0.0576 | 0.0731 | 0.076 | 0.0552 | 0.108 | –
